Laboratory results from the supplement of paper PMC3334620.
Whole data set: some 33,000 sequences, median “E-score (-0.5 to 0.5)” near -0.041, cut for the highest 2% near 0.37. The list shows a part of the results.

molecular target: T1, Ecm22 (UniProt Q05958); experiment: PBM E-score (8-mer binding enrichment) (E-score (-0.5 to 0.5)); higher = stronger / more preferred TF binding; most listed sequences are background and not binding sites; settings: protein concentration: 200 nM; construct: GST-full length
T1 sequence: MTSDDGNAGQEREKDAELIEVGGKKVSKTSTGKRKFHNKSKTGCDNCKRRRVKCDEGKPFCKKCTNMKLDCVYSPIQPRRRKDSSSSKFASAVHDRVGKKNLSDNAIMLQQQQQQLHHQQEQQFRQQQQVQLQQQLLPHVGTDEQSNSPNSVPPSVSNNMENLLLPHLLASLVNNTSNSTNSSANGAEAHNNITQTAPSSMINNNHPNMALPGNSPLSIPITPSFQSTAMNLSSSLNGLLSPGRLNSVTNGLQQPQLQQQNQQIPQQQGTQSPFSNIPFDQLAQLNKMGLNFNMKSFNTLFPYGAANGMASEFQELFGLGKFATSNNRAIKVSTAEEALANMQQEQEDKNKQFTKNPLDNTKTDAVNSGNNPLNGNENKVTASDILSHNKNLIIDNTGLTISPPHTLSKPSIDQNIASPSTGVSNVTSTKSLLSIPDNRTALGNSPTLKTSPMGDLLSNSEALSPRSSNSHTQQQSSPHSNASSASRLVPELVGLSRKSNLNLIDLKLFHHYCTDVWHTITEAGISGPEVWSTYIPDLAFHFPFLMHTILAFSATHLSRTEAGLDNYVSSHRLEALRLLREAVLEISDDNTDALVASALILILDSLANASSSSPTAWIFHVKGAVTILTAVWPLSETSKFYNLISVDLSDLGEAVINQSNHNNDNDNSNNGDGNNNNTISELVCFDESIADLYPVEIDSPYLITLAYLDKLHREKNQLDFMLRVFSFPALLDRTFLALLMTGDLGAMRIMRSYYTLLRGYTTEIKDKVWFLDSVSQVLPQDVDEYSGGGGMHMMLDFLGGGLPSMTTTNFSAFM
How it was run: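 Each ungapped eight-base word and its reverse complement, pooled, received an E-score from the Universal PBM Analysis Suite. Underlying scans, normalised with masliner, recorded fluorescent anti-GST bound to GST-tagged yeast transcription factors. These were applied at about 100-200 nM to universal all-10-mer Agilent arrays double-stranded by primer extension.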

Sequence	PBM E-score
CCAGTCCC	-0.245
ATTTTCAC	0.0511
TGCCTCCA	-0.256
CAGCGTGC	-0.173
AAGTGGAG	-0.103
CACGACGA	0.108
AACGGTGA	0.195
AATACAAT	0.095
ATCCGTTC	0.325
CAAAACGA	0.278
CAAATTAA	-0.115
ATGAGATC	0.0336
GAGGATCC	0.0563
GTCTCGTA	0.461
ACACATGC	-0.0525
TAAACAGA	-0.218
ATCACCTA	-0.0876
AATCATGC	-0.25
CTCAAGCA	-0.289
CATTCTGC	-0.121
CCTCCAAG	-0.321
AATCGATA	0.161
AGGCACCA	-0.0947
ACCGTTAT	-0.074
ACTCATCA	-0.13

Sequence	PBM E-score
AGAGCCCG	0.0255
ATTAACAA	0.179
GAACACCA	-0.183
GAATGACC	-0.0703
AATAGTTA	0.0022
ACGCCTAC	-0.172
CCTTCCGC	-0.184
ACCCATCC	-0.125
CATTAGTA	-0.0217
AAGTGGGG	-0.157
GAGCAATA	-0.0848
AGCACTTC	-0.0507
TCGATAGA	0.042
TCGTTAAA	0.44
CACATCTC	-0.203
TCATCAAA	-0.111
GCGTCCTA	-0.07
CCCGGCCG	-0.15
CATACATC	-0.035
CAAAGCCA	-0.0435
GGGTACCC	-0.196
CCCAGCAC	-0.127
AATACTGG	-0.0619
GATTGCGA	0.178
CATATCAG	-0.174

Sequence	PBM E-score
AGATTCTG	-0.133
CGGTTGAC	0.0991
CGTAAAGA	0.389
CAGACCCA	-0.131
CTGCTAGA	-0.155
ATACGGGA	0.389
CGATTGAC	0.109
CCTATATA	0.109
ACCCGACA	0.132
ACGCCAGA	0.0314
CAAGCTAA	0.00292
AGACTCCG	-0.193
CGCGGTGC	-0.0645
AAACAGTG	-0.0311
ATCCACAT	0.00148
AGGGGAGG	-0.127
CAACTTCG	0.0697
CTTCCTGA	-0.112
AATATTTG	0.127
AGCGTCCA	-0.201
CGTGACAG	0.0941
CACCACAC	-0.135
ATCCGACA	0.127
AGCGCGGG	0.033
CAACATTG	0.0128

Sequence	PBM E-score
CCGAAGCA	0.0708
ATCTGCAC	-0.117
GCTGGATA	0.00029
CATGTAGA	-0.0172
GACTTTCC	-0.201
AGACGATG	0.00668
GATGCCAC	-0.148
GGTGTATA	-0.0731
ACCTTAAC	0.0365
AGTTTCGC	0.128
AACCGTCC	-0.274
ATTAAGAG	-0.0551
ACCAGCCC	-0.231
CACTAGTA	0.0245
GACTTACA	0.13
GATGCCTA	-0.185
GCGGTGCC	-0.173
TAAATCGA	-0.0312
ACCAGGCC	0.0165
CAGTGGGG	-0.207
GAGGAAAC	0.0137
CCCGCTAA	-0.0739
ACCTATAA	0.0606
AACAGATA	-0.0219
CTGCTGTC	-0.0117

Sequence	PBM E-score
ATCGAGTC	0.0487
GGCAAGCC	-0.285
AAACTTCT	0.0903
AATTTGTG	0.153
AAGGACAA	-0.0711
CCGGCTAA	-0.164
AACGCACT	0.0967
CTGGGACA	-0.103
TAGCGCAA	-0.00736
GTAGCGCA	0.0592
GCGTATTA	0.031
ACGGTCTC	0.184
AGTACGCC	-0.0213
ATTAGTCG	0.251
GGGTAGTA	-0.0752
CACATCAG	-0.139
CGGCTTAG	-0.17
ACTCCCTA	-0.0743
CCTAACAC	0.0728
AGCGCCGC	-0.188
GTCGTCGA	-0.00575
CACCCGAA	0.156
AATGCCGA	-0.0319
ACGAAATG	0.282
AGCAGAGA	-0.245

Sequence	PBM E-score
GGCGAAAA	0.0595
CCATCGCG	0.0954
GCATTTAA	0.111
GAAGTCCA	-0.251
AGAAGGCA	-0.166
CCGAGCAC	0.208
GCCCAGGA	-0.293
TAACTATA	-0.0127
GCGGCAGC	-0.236
GACTAGCA	-0.182
AATCGAAT	0.0012
ACGCTGTA	0.13
ACGTAGGA	0.0588
CTTTAGAA	-0.0855
CTGCCGCA	-0.178
CTATAATC	0.111
ACAATCTA	0.0797
GGGATGCA	-0.0848
CATCTGGG	-0.134
GCTTAGCC	-0.0171
ACGGCTTA	0.0496
CGCACACC	0.0889
AGACACGA	0.218
AACTAGAG	-0.182
TGACTGAA	-0.196

Sequence	PBM E-score
ATCTACCG	0.0613
ACTAGAGG	-0.227
GATCTAAA	0.11
GGGAGCGA	0.332
ATCACTCA	0.0232
CCGAGTGA	0.196
GACTCGCC	-0.046
GATACTCA	-0.072
ACAACACG	0.131
TTAGGCAA	-0.305
CCATACGG	0.345
AATTACAA	-0.213
AGATTTAT	0.0306
GGGGACGA	-0.125
AACATAAA	-0.034
CATCCAGA	-0.106
ACTAGCAA	-0.0444
CGTGGTGA	-0.196
CCACACAA	-0.189
CGGCGCGA	0.133
ACCCGATA	0.259
AGCCCACT	-0.118
ACGCGGAC	-0.0224
CTTGTAGC	-0.0823
CCACGCCA	-0.204

Sequence	PBM E-score
GCTGGTAC	-0.00169
AGCCCCCT	-0.207
GTCGTAGA	0.4
CCGGGTCG	0.163
ACGGTGCT	0.109
CGGCAAGA	-0.118
GGCACTAA	-0.143
AGGATGAT	0.0289
ACCGGATG	0.0481
GGCATCCC	-0.315
GGCTCAGA	-0.051
CGACGCGA	0.221
GAGTGTTA	-0.126
ACTTTGAT	-0.154
AAAGTACA	0.154
ACATCCAC	-0.0236
AGCCGTCC	-0.181
AATGGTAC	0.167
AAAAATAG	-0.197
GGTGCTGA	-0.13
AGCTCCTA	-0.316
CTATGCGC	0.00705
GCTTTTCC	0.0155
CAACCTTC	-0.186
AGTAAGCA	-0.0538

Sequence	PBM E-score
TCTGATCA	-0.194
GAGGGCTA	-0.271
GAGCATCA	-0.0867
TCTCGCAA	0.227
ACTGTAAG	0.133
ACTTAAAT	-0.142
TATAGTGA	-0.115
CGCCCACC	-0.18
TCGTAGCA	0.419
GTGTTAAC	-0.094
GGAGAGAC	-0.154
AGCTTGTA	0.0441
ATAAAGAT	0.0382
ACTTAGAC	0.0216
GCCCTACA	-0.133
ATTCCGAA	0.022
CCCTATCG	-0.138
ATGGGAAC	0.0419
ACTTAGTC	-0.115
GCATCTAA	0.13
AGAAAGGC	-0.119
CGTATAGA	0.458
TCTAGCAA	0.0363
CGTCCTTC	-0.0408
CACGGAAC	0.0912

Sequence	PBM E-score
GGACACAA	-0.00344
CAGTCGCG	0.086
CATCATAG	-0.12
ATAGCGGG	-0.0534
CCTACCAC	-0.243
ACGCAGTA	0.16
CTCTGCTA	-0.305
CCGTGAGA	-0.336
GGATGTCA	-0.0106
ATCACTGG	-0.0635
CACGTTTC	-0.0133
ATGCTCAA	-0.27
ATCTTGCG	-0.0369
ACTTTCAA	-0.174
GTAACCAA	0.0317
GATAAGAC	-0.115
ACACCGGA	-0.114
GCCTGCGC	-0.272
GACGTAAA	0.154
GCGCGGAA	-0.0299
CAGGTGTA	-4e-05
GCTGCGTA	0.197
GAGACGCA	-0.00019
GTCCAATA	-0.086
GAAGGGCC	-0.0684

Sequence	PBM E-score
CAGTGAAC	-0.00726
CTATAAGC	-0.0428
AAGAAAAT	0.173
CGCAATCA	-0.0988
CAGGTACG	0.423
ATGGCTAC	0.146
CAAGCGTC	-0.0674
AGGCGGGA	-0.209
CATGCGGG	-0.05
GAGACATC	0.0757
GACTACTA	-0.0404
CCCGCATC	-0.00884
GATCCGCA	0.0238
CGAACGAC	0.389
CCTGACAA	-0.117
TACGGCAA	0.315
AGGCTGTC	0.014
CCAGGGTC	-0.14
GAATGGTC	-0.116
ACAATGGT	-0.287
CCATAGTC	-0.299
AAGCGATT	0.155
AACCCCAA	-0.13
ATTCCAGG	-0.277
ACCTGTAC	0.17

Sequence	PBM E-score
GATAAGTA	0.0422
AGACCTCG	0.208
CCCGTCCA	-0.0657
CGAGATCA	0.264
CCACTCCA	-0.082
CATTGCCA	-0.0283
AGCCGACG	0.0118
TCAAGCAA	-0.218
CCGCGTGA	0.037
CTTCGGGA	0.0637
AGTACCTG	-0.106
CCATTCTA	-0.198
ACTTCGTG	0.116
TATCGTCA	-0.0196
CGAAAATC	0.162
AGCTACAT	-0.148
ACGCGGCT	0.0937
GAGCGCCA	-0.0916
CGTTTAGA	0.446
CACGTTGG	-0.226
GTAGCAAC	0.0848
CACCGCAG	-0.207
ACTCCATA	-0.195
CGTCGACC	-0.0446
ATAGCCGC	-0.143

Sequence	PBM E-score
ACGGCGCG	0.318
AACAGGCA	-0.129
GTCACCCA	-0.297
CTTACACA	-0.278
GTCCACAC	0.00156
ACTGAGTA	-0.0231
GATATATC	-0.116
CTGGAATA	-0.127
AAGACCAG	-0.318
AACTACGC	0.102
ATTCTTGC	-0.0441
GCTCGGAC	0.161
CGTCTGCC	-0.06
GCCGGAAC	0.0721
ATAATGCA	0.0774
AATCCCGA	0.136
ATAGTTCA	0.107
ACATTTCA	-0.103
AGTTGCAT	-0.0617
ACACCCGG	-0.00779
ACAGCAAA	-0.038
CGTGGAAA	0.0923
AATATGGG	-0.124
AGAGCATA	-0.108
CGCAGCAC	-0.108

Sequence	PBM E-score
ACATACAT	0.114
CTTGCTCA	-0.17
AATACCTA	-0.0655
TCAAGAAA	0.0221
CGTAATGC	0.162
AGAAGCAT	-0.152
CGCTACAG	-0.099
AAAGCGAT	0.139
ATGCTACC	-0.113
GGAAAAAA	0.126
CAAGACGC	-0.0301
ATTCGATA	-0.0318
TCCGGTAA	0.134
GAGAAAAA	0.00044
CACCAAGG	-0.286
ACCCTAAA	0.0255
TATTAGAA	0.092
GCCGCAAA	0.0548
AGGAAAAA	0.00279
